The list shows a part of the results. At the low end of the ranking the order means little.
Target: T1, GST-Rok (full length) (UniProt O34857)
T1 sequence: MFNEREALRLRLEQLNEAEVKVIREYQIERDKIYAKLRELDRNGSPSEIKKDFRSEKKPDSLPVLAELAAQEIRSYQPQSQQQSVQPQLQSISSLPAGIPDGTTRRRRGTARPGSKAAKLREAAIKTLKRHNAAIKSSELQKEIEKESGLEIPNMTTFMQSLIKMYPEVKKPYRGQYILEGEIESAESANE
Experiment: protein binding microarray;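 further: rank score from −0.5 (least bound) to 0.5 (best bound)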
Details: Rok is a gene silencer of Bacillus subtilis; high values mean tight binding; most listed sequences are background and not binding sites; double strand, one strand shown

Sequence | binding signal [E-score]
CACCTGAA | -0.184
AACACCTT | -0.0359
ATGATAGA | 0.342
TATCGTGA | 0.201
ACACGTTG | -0.157
GAAAATCA | 0.103
CGAGTCAC | -0.287
GATTCTTA | 0.114
CGAGCCAA | -0.12
ACACGATC | 0.0482
ATAGGGTC | 0.103
AACTAATC | 0.158
AGCAAGTG | -0.0153
CTTATCAC | 0.118
ACATTGAG | 0.112
ATCTGAAA | -0.0558
CCGCTTCA | -0.202
CCCCTTCC | -0.434
ATATTTAC | 0.379
GTATAGCA | 0.113
CTAAGCAA | 0.0945
ACCCGGGT | -0.28
ACTTCTAA | 0.185
AAAAATAG | 0.204
CAACATGG | -0.11

Sequence | binding signal [E-score]
TTGTAAAA | 0.266
TCCTGCAA | -0.0995
GCGCGAAA | 0.00527
CTTCGGGC | -0.239
GCCAGTCC | -0.273
AACATCAA | 0.0614
AGACTACA | 0.0935
CGCGCCGA | -0.237
ACACGAGT | -0.137
GAATAGCC | -0.186
TGGCGGAA | -0.221
CAGGTGAC | -0.146
CCCAACCC | -0.172
CCTCACTA | 0.0478
TCTGAGCA | -0.322
AGACGAGC | -0.255
AAAATAGA | 0.325
TCCGGTCA | -0.148
AGGTAACC | -0.0171
AAAAGATT | 0.133
AGACCACT | -0.0923
ATTCAGGG | -0.205
CCCCAGCA | -0.373
CAACTAGG | 0.234
CCACTTAC | 0.0783

Sequence | binding signal [E-score]
CTACTAAG | 0.124
GAATCTGC | -0.0377
ACCTTTTG | 0.117
TAACGAGA | 0.0744
AACCGTCA | -0.058
TCCTGAAA | -0.247
CTCCAAAA | 0.0113
ACGGATGG | -0.248
ACTTCTCA | 0.161
CGAGTACA | -0.00996
GTCTTCAC | -0.121
CGGGCTGA | -0.123
ACGTTTGA | -0.048
CGGTCTCC | -0.313
AAACACCA | -0.116
AGGATGCG | -0.0785
GTTCGGGA | -0.107
ACTCTGCA | -0.241
TACGATAA | 0.292
AAGCAAAC | 0.156
GATTGACA | 0.0214
CCCGACGG | -0.219
AGGTAATA | 0.319
ATTTGATA | 0.209
CCCAGACA | -0.325

Sequence | binding signal [E-score]
AACCCACC | -0.246
ACCGCCGC | -0.152
CCGGATAC | -0.132
GGCGGAAC | -0.291
AGGGGCAG | -0.325
ACGTAAGC | 0.00598
CCGTCTCA | -0.246
GATGTGGA | -0.0326
TGCCTACA | -0.045
ACAATTTC | 0.145
AGCTCTAC | -0.0117
CGTTTGTC | -0.0759
AGCTGATC | 0.145
CGTGTCAA | -0.293
TGAGGGCA | -0.401
CTTAGCTA | 0.145
ACTGGCGC | -0.131
GGCCAGCC | -0.443
ATATCGCG | 0.274
ACTGCCAT | -0.0629
CAATAAAA | 0.172
ACAGCCGG | -0.277
ATTTGCTA | 0.207
CACGCACC | -0.211
ATTATGGG | 0.0961

Sequence | binding signal [E-score]
AATTAAAA | 0.24
TGCCTCAA | -0.0324
GCGTAGCA | -0.308
CGGTACAC | 0.0822
TTGTACAA | 0.387
CCACATGA | 0.0193
GCCGTATA | -0.119
AGCGTTAT | 0.0581
GCATGTTA | 0.0472
CACATCAC | -0.0151
CGCATAAG | 0.0614
CCTTTGAG | -0.367
GCGAAGGA | -0.241
AGTAGACG | 0.00568
ATAAGGCA | 0.114
GTTCAAAC | -0.0663
CGTTACGC | -0.0534
TAATGTAA | 0.334
GACGGTAA | 0.156
GTGCCACA | -0.216
CATCTAAA | 0.0555
CTAAAAAC | 0.082
CGTTAGTC | 0.0567
CCAAACTC | -0.0373
AGCTCGGG | -0.281

Sequence | binding signal [E-score]
GAGACGGA | -0.116
TAGGGGAA | -0.219
ATCTCCCG | -0.0534
AAGGTGAC | -0.231
CGTACCGA | -0.0515
ACACGCCC | -0.241
GCCAAGGA | -0.214
GCATCAGA | -0.134
AATAAGGA | -0.0412
GGTGATTA | -0.0256
CACCCCGA | -0.0384
ATCAACGG | 0.216
CATCCTAA | 0.0114
CGCAACTA | 0.323
AGTCTGGA | 0.0388
TCATCCAA | -0.0745
ACGAGAGG | -0.3
AACCTTAA | -0.105
ACGCTGCA | 0.0028
GCGCGGGA | -0.269
GCATAAGA | 0.145
GATTACAC | -0.099
TCGTCAGA | -0.0975
TGACGGCA | -0.309
TCCAGTCA | -0.0213

Sequence | binding signal [E-score]
GACGATCC | -0.102
GTCTTCGA | -0.0312
AGCTATAT | 0.337
ACGCACGA | -0.0729
GTGGGGAA | -0.313
ATCGCAGC | 0.0136
CAGAGGCC | -0.321
ACGGACGA | -0.0826
ACCTGTTC | -0.0419
ACTTAGGC | -0.0335
ATGATGAG | 0.0727
GTCATTCA | -0.00959
ACCTTTTC | -0.0938
CGGAGTAG | 0.0653
GCATCGGC | -0.173
GCTTATAC | 0.226
CCTGAGAA | -0.197
GGCGGACA | -0.216
CATTAGTC | 0.0943
CCGATGAC | -0.254
TAATCAAA | 0.0631
CCCTAGAC | -0.327
AAGTATAG | 0.127
CGCCAAGC | -0.262
CTAAACGA | -0.072

Sequence | binding signal [E-score]
ACCCACAT | 0.0678
TGACCAAA | 0.0772
TGAAGGCA | -0.0995
CGTTCACC | -0.171
CCGTCATC | -0.0898
AGTCTCCG | -0.191
CAATGTGG | -0.0719
CCCTTAGC | -0.222
CGTTGACA | -0.146
ATCTGCTG | -0.0203
AACACCTC | 0.0365
ACGCTAGC | 0.182
GGGCGAAA | -0.113
AATATATG | 0.33
CAGCCATG | -0.108
CGGAAGCA | -0.272
GAGCAAAC | -0.12
AACAGATA | 0.168
TCGAACAA | -0.0601
CTTCTACC | 0.327
CCGGTGAG | -0.258
TATTCCCA | 0.0492
CGTGCGAA | -0.119
GATCGTTA | 0.00221
CGGGGGAC | -0.365

Sequence | binding signal [E-score]
AACGATCC | 0.0726
GCGGTAGA | 0.337
ATACCCAT | 0.297
ACAGTAAT | 0.244
GCTATAGA | 0.151
AAAACCCC | -0.355
CCTAGAAG | -0.29
AGTCTCAA | -0.0576
GGGAGCGA | -0.389
ACGGCGAC | -0.305
ACAACCTA | 0.0459
ACGGGCCC | -0.31
AGGGCTAT | 0.0264
AGCTAGAG | -0.0103
ACCAGCGC | -0.218
CACGAGAG | -0.184
GGGGCTCA | -0.4
CCTACTAG | 0.0992
AGGTCTCA | -0.0826
GTCTATCA | -0.00992
CTCCGTCA | -0.143
GGAGTTAC | 0.0656
GTAGGGTA | 0.256
AAATCTAT | 0.315
ATGTCTGC | 0.011

Sequence | binding signal [E-score]
CGGAGGGA | -0.354
ATGAGTTC | -0.0711
GCTCTTCC | -0.304
AGTATCTA | 0.343
ATCGTCCA | -0.0609
CCGAGAAA | 0.0756
CGACTGGA | -0.0992
CATAACTC | 0.184
CATCTTCC | -0.128
TAGAGAGA | -0.0178
CATGAAGC | -0.206
CAACCGCA | -0.0677
AAACGACC | -0.254
GGAGGAAC | -0.0861
AAACCGGG | -0.153
ACGGGATA | 0.0997
TAATGTGA | 0.102
CCACTGGG | -0.243
TCTTCTAA | 0.0283
ACTCCCAC | -0.205
ACTATCGG | 0.168
CAAACCCC | -0.313
CTGCTCAC | -0.0532
TACGCGTA | 0.187
CACAAGTA | 0.183

Sequence | binding signal [E-score]
TCACCTGA | -0.0909
ATAAGCTA | 0.178
CTCTTAAG | -0.225
GCTGACTA | 0.129
GAAGGCGC | -0.104
CGTTGCCC | -0.327
ACATTCGG | 0.0153
CAGAACAG | 0.0652
CTAATTGA | 0.0109
ATTCGACG | 0.17
CAGCAAGG | -0.25
GGCACGTA | 0.0678
GCGGGTAC | -0.0451
ACTTGTCT | -0.00713
AGTGATGC | -0.0437
CTTTAGTC | -0.228
AGAAATAA | 0.328
CATTTGGG | 0.0352
GACATACC | -0.0287
CAAGCTCG | -0.161
GAACCCTA | -0.0592
GCGTGGAC | -0.209
ATGTGGCA | -0.0115
AGCTGGCC | -0.207
CGGACGAC | -0.205

Sequence | binding signal [E-score]
TGCGCACA | 0.0842
AATCTTTG | -0.0102
CTTTTGGC | -0.127
CCTTAACG | -0.0995
GGGGATCA | -0.296
CCGACCAA | -0.12
GATTGATA | 0.23
CAAAAGAA | -0.298
AACGAGAC | 0.117
AGAAGCCA | -0.182
CGTACAGC | -0.0495
CCTGTCAG | -0.202
AGTTGCGG | 0.125
AGAGCCTG | -0.136
ACGCGGAG | 0.0782
CGTACTCA | 0.0155
CGCATTGC | -0.0682
CTCGTCGA | -0.102
CAACCGTG | 0.0793
AAGATGCA | 0.0603
GCGGCATA | -0.0947
ACATGGGA | -0.0271
CCCTGCCA | -0.272
ACTGTTCG | 0.158
CGTATTTC | 0.108

Sequence | binding signal [E-score]
ATTGTATG | 0.26
AGGGGGGC | -0.495
ACCAAGCG | -0.165
CAGGGCCA | -0.125
CGCCGAAA | -0.23
ACAAAGGC | -0.12
ACCTGTCG | -0.112
ATACCAGC | 0.234
ATGCGGAG | -0.23
ACAGCCCT | -0.106
AACCTAGC | -0.105
CAGCATAA | 0.126
CCCCAGGC | -0.228
CTTAAGAC | -0.107
TAGGATCA | -0.000121
ATAGTTAC | 0.349
CGGAAAAG | 0.012
GCAACTGA | -0.0401
GTTCGAAA | -0.0356
GCCCCGCA | -0.257
GAGATGGC | -0.167
AACAATTG | 0.136
CTTAGTTC | 0.0779
TGAAGCAA | -0.166
TAGAAGGA | 0.22

Sequence | binding signal [E-score]
CTTGCCGC | -0.143
GCAGTGGA | -0.172
CTCCCGGA | -0.199
TGTTAGAA | 0.113
CGGCAACG | -0.16
TTATAAAA | 0.236
ACGGCCTC | -0.321
CCCGACGC | -0.28
TAGGGATA | 0.1
GTAACACA | 0.152
GTTCAATA | 0.201
CTTTAAAA | -0.0254
CCTAGAAA | 0.0461
TATTAATA | 0.368
CCGGTTAG | -0.0832
TAAGTCCA | 0.0283
AACATGAA | 0.163
CAAATATC | 0.285
ACGACGGA | -0.0323

Reference: publication PMC6212790
